Assay results published in the antibiotic and cytotoxicity screens of Wong et al. (2023).
The list shows a part of the results.

Each compound was assayed on HepG2 (assay: cytotoxicity call (relative viability < 0.9)). Settings: 10 µM.

Structure (SMILES) | cytotoxicity call
C[C@@H]1CN([C@@H](C)CO)C(=O)c2cccc(NC(=O)c3cnccn3)c2O[C@H]1CN(C)Cc1ccncc1 | inactive
Cc1ccc(S(=O)(=O)Nc2ccc3c(c2)C(=O)N([C@H](C)CO)C[C@H](C)[C@@H](CN(C)C(=O)Nc2cccc4ccccc24)OCCCC[C@@H](C)O3)cc1 | inactive
Cc1noc(C)c1NC(=O)Nc1ccc2c(c1)C(=O)N([C@@H](C)CO)C[C@@H](C)[C@H](CN(C)Cc1ccc(C(=O)O)cc1)OCCCC[C@H](C)O2 | inactive
O=C(C[C@H]1CC[C@@H](NC(=O)C2CC2)[C@H](CO)O1)NCCCN1CCOCC1 | inactive
C[C@H](CO)N1C[C@H](C)[C@H](CN(C)Cc2ccc(C(=O)O)cc2)Oc2c(NC(=O)C3CC3)cccc2C1=O | inactive
NCCn1nc([C@H]2CCN(C(=O)c3csc4c3CCCC4)C2)c2nccnc21 | inactive
COC1=CC(=O)CC(C)C12Oc1c(Cl)c(OC)cc(OC)c1C2=O (stereo unspecified) | active
C[C@@H]1CCCCO[C@@H](CN(C)Cc2ccncc2)[C@@H](C)CN([C@H](C)CO)C(=O)c2cc(NS(=O)(=O)c3ccc(Cl)cc3)ccc2O1 | inactive
O=C(CCCCCNC(=O)OCc1ccc(CO[C@@H]2C[C@H](c3ccc(C(F)(F)F)cc3)C=C(C(=O)N3CCCCCCC3)O2)cc1)NO | inactive
O=C1O[C@H](c2ccccc2)[C@H](c2ccccc2)N2[C@H]1[C@@H](C(=O)N1CCN(c3ncccn3)CC1)[C@]1(C(=O)Nc3ccc(C#CC4=CCCCC4)cc31)[C@H]2c1ccc(O)cc1 | inactive
O=C(NCCCN1CCOCC1)[C@H]1N[C@H]2c3ccc(C4=CCCCC4)c(=O)n3C[C@H]2[C@@H]1CO | inactive
